# Results as given in article PMC4336329 (PLoS ONE, 2015).
# In all, about 310,000 compounds went through this assay and about 14,000 (4.5%) showed an effect of 50% or more. The effect is printed as a negative number. The list shows a part of the results.
# Target: human ether-à-go-go-related gene (hERG) potassium channel (human, UniProt Q12809)
# Test: primary screen, population patch clamp on CHO cells stably expressing hERG
# 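Further: peak tail current of the secondary pulse compared with the same well before compound.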
# Chain of human ether-à-go-go-related gene (hERG) potassium channel (Q12809 whole entry, looked up): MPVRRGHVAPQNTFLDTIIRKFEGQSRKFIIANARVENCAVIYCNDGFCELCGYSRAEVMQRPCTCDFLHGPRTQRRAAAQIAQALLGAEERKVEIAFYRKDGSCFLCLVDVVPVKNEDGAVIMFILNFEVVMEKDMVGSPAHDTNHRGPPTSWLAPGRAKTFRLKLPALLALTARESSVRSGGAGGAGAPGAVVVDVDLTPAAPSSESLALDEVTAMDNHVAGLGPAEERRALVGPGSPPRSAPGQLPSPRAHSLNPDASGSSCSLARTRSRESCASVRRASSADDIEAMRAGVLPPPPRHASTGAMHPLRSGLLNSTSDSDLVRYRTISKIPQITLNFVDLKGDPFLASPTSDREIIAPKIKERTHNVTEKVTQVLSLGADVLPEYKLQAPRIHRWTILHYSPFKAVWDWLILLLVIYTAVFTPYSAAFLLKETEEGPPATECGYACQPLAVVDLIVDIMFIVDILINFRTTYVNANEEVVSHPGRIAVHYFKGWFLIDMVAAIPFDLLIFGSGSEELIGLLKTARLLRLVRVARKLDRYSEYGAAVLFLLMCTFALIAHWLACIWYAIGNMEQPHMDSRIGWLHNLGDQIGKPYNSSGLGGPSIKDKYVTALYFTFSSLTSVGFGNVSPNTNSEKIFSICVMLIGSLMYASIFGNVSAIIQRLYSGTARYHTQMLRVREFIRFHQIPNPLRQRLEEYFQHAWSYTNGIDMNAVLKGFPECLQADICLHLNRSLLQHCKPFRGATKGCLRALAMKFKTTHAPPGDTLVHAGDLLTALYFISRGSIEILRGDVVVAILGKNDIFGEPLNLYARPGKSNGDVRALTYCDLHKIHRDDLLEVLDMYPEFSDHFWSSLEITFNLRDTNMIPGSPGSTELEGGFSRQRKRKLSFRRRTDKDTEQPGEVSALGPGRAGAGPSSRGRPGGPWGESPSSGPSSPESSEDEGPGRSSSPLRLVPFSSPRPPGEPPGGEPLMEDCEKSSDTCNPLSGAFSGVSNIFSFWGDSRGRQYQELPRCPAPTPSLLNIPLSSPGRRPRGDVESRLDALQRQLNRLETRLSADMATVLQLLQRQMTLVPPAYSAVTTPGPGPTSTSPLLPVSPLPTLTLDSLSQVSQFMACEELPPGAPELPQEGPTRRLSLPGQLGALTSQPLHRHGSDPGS
row,Compound,"hERG current change (%, negative = inhibition) at 10uM [%]"
1,CSc1nc(=S)cc(C)[nH]1,3.88
2,O=C(NCc1ccccn1)c1ccc(NS(=O)(=O)c2ccccc2)cc1,0.108
3,COc1ccccc1C(=O)NC(CCSC)C(=O)N1CCN(C(C)=O)CC1 (centres unmarked),-0.345
4,Cc1cc(OC(C)C(=O)NCc2ccccn2)c2c(C)cc(=O)oc2c1 (centres unmarked),-9.69
5,COc1ccccc1C(=O)Nc1ccnn1C1CCN(C/C=C/c2ccccc2)CC1,-78.9
6,COc1ccccc1NS(=O)(=O)c1cc(NC(=O)CCNC(C)=O)ccc1N1CCCCC1,-13.8
7,COC(=O)c1sc2cnccc2c1N,13.7
8,CC(C)N(C(=O)CN1CCN(S(=O)(=O)c2ccc(Br)s2)CC1)C(C)C,-17.4
9,O=C(OC(C(=O)c1c[nH]c2ccccc12)c1ccccc1)c1cnccn1 (centres unmarked),1.77
10,O=C(NCc1ccccc1C(F)(F)F)C1CCC(=O)N(CCCc2ccccc2)C1 (centres unmarked),-13.8
11,COC(=O)c1cc(Br)c(=O)n(-c2ccccn2)c1,12.5
12,Cc1ccc(NC(=O)CSc2nc3ccccc3c(=O)n2CCCN2CCCCC2)cc1Cl,-73.7
13,CCOc1ccc(NC(=O)CN(C)C(=O)c2cc3c(s2)CCCCC3)cc1OCC,-3.41
14,CCN1CCN(c2ccc(NC(=O)c3cc(S(=O)(=O)N4CCCC4)ccc3Cl)cc2)CC1,-27.7
15,COc1ccc(CNc2ccc(C)c(C)c2)cc1,11.8
16,O=C(NCCN1CCN(C(=O)c2cccs2)CC1)c1cccs1,-35.8
17,CCCn1nc(NC(=O)C2CCCO2)c2cc3cc(C)ccc3nc21 (centres unmarked),-30.6
18,COc1ccc([C@H]2C=C3CN(C(=O)OC(C)(C)C)S(=O)(=O)[C@H]3C[C@H]2OC(=O)c2ccc(C(F)(F)F)cc2)cc1,12.7
19,O=C(CCCCCN1C(=O)c2cccc3cccc(c23)C1=O)N1CCOCC1,-21.8
20,O=C(CSCc1ccc(Cl)cc1)N1CCOCC1,-4.25
21,CC(=O)Nc1nonc1NC(=O)c1ccc(F)cc1,21.6
22,Cc1ccc(NC(=O)CCNS(=O)(=O)c2cccc3nsnc23)cc1,-3.66
23,COC(=O)c1ccc2[nH]c3c(c2c1)CC(C)CC3 (centres unmarked),17.8

row,Compound,"hERG current change (%, negative = inhibition) at 10uM [%]"
1,O=C(CSc1nc(-c2ccccc2)cc(C(F)(F)F)n1)NCc1cccs1,14.4
2,COc1cccc(C(=O)N(Cc2nc(-c3ccc(C)cc3)no2)C(C)C)c1,6.99
3,O=C(C(=O)N1CCc2ccccc2C1)c1c[nH]c2ccccc12,8.82
4,CC1(C)C=Cc2c(c3ccccc3[nH]c2=O)O1,-6.75
5,CCOC(=O)CSC(CC)C(=O)Nc1nnc(CC)s1 (centres unmarked),-2.06
6,NNC(=O)C1CC(O)CN1S(=O)(=O)c1ccc2ccccc2c1 (centres unmarked),8.01
7,O=C(CSc1n[nH]c(=O)n1-c1cccnc1)Nc1ccccc1,19.4
8,Cl.OC(COc1c(F)cc(Br)cc1F)CN1CCN(c2ccc(F)cc2)CC1 (centres unmarked),-25.7
9,S=C(NCc1ccc(Cl)cc1)Nc1ccncc1,-13.6
10,CCOc1ccccc1C(=O)N(CN1CCCC1=O)c1cccc(Cl)c1,-3.65
11,Cc1ccc(S(=O)(=O)Nc2cc(Cl)c(O)cc2C)cc1,-13.9
12,Cc1ccc(C)n1-c1ccc(N2CCOCC2)cc1,0.152
13,Cc1ccc(C(=O)NC2CC3CCCC(C2)N3C(=S)NCc2ccco2)cc1 (centres unmarked),11.8
14,Cc1cc(NS(=O)(=O)c2ccc(CC(C)C)cc2)no1,0.997
15,O=S(=O)(Cc1ccccc1)N1CCN(C2Cc3ccccc3C2)CC1,-8.38
16,Clc1ccc2c(NCc3ccco3)ncnc2c1,-6.16
17,COc1ccccc1NC(=O)c1cc(S(=O)(=O)N2CCCCCC2)ccc1F,4.66
18,O=C(NCc1cccnc1)c1cccc(S(=O)(=O)Nc2cccc(Cl)c2)c1,-10.8
19,CC1C(c2cccs2)=[N+]([O-])C(C)(C(=O)c2ccc(F)cc2)N1O (centres unmarked),17.6
20,COc1ccc(C(=O)COC(=O)c2ccc3c(c2)NC(=O)CS3)c(OC)c1,7.09
21,COc1cc(OC)c2c(c1)O[C@@H](c1ccc(OC)c(OC)c1)[C@H](O)C2,12.7
22,COc1ccccc1N1CCN(C(=O)COc2cccc(C)c2C)CC1,0.436
23,CN(C(=O)CN(C)S(=O)(=O)c1ccc(F)cc1)c1c(N)n(Cc2ccccc2)c(=O)[nH]c1=O,-18.8

row,Compound,"hERG current change (%, negative = inhibition) at 10uM [%]"
1,O=C(Nc1ccc(C(F)(F)F)cc1)c1cc(-c2cccnc2)nc2ccc(Br)cc12,-16.2
2,O=C(Nc1cccc(C(F)(F)F)c1)N1CCC(c2nc(-c3ccc(F)cc3)no2)CC1,-28.7
3,O=C(c1c(F)cccc1F)N(Cc1ccccn1)C1CCCC1,14.1
4,COc1ccc(-n2ncc(C(C)NS(=O)(=O)c3ccc(C(C)=O)cc3)c2C)cc1 (centres unmarked),9.78
5,O=C(Cc1ccc(S(=O)(=O)N2CCOCC2)s1)N1CCN(c2ccc(C(F)(F)F)cc2[N+](=O)[O-])CC1,-54.8
6,Cc1noc(NS(=O)(=O)c2ccc(NC(=O)C(C)(C)C)cc2)c1C,19.2
7,Cc1cccc(C(=O)NNS(=O)(=O)c2ccccc2[N+](=O)[O-])c1,1.16
8,CN1OC(c2ccccc2)=C(CO)C1c1ccccc1 (centres unmarked),6.52
9,COCCCn1c(=O)c2ccccc2n(Cc2ccccc2)c1=O,-6.14
10,CC1(CCc2ccccc2)NC(=O)N(CC(=O)N2CC(=O)Nc3ccccc32)C1=O (centres unmarked),7.19
11,CC(C)OC(=O)CN1C(=O)C(C)(C)Oc2ccc(C(=O)NC3CC3)cc21,-4.13
12,Cc1ccc(NC(=O)CN(C)C(=O)CCOc2ccccc2C)cc1,-14
13,CC(=O)NS(=O)(=O)c1ccc(NC(=O)CCC(=O)Oc2ccc(C)cc2)cc1,7.56
14,COC(=O)CSc1nc2ccccc2nc1SCC(=O)OC,4.61
15,NC(=O)CSc1nnc(-c2ccc([N+](=O)[O-])cc2)o1,-2.83
16,COc1ccccc1-c1nnc(SCC(=O)N2CC(C)CC(C)C2)o1 (centres unmarked),-1.96
17,COC(=O)C1=C(C(=O)c2ccc(C)cc2)C(c2ccccc2)n2nnnc2N1 (centres unmarked),-1.32
18,CSc1cccc(NC(=O)NCc2cccc(CNC(=O)Nc3cccc(SC)c3)c2)c1,10.2
19,COc1cnc(-c2ccccn2)nc1Sc1ccc(F)cc1,5.49
20,CCCC(=O)N1CCc2cc(-c3nc(N)sc3C)ccc21,5.78
21,O=C(c1ccc(S(=O)(=O)N2CCOCC2)cc1)N(c1ccccn1)C1CCCCC1,-6.32
22,CC(C)(C)OC(=O)N[C@H](Cc1ccccc1)C(=O)N1CCC(C(=O)O)CC1,9.08
23,CCN1CCc2c(OCC(=O)Nc3ccc(C)cc3)cccc2C1=O,-6.47

row,Compound,"hERG current change (%, negative = inhibition) at 10uM [%]"
1,NC(=O)N/N=C/C=C/c1ccc(F)cc1,8.5
2,CCN(CC)S(=O)(=O)c1ccc(C(=O)Nc2nnc(CSC)o2)cc1,14.1
3,Cc1ccccc1C(=O)Nc1ccc2c(c1)OCO2,6.11
4,CCCCNC(=O)Cc1ccc(Br)cc1,8.76
5,COCCNc1nc(C)c(C(C)=O)s1,19
6,O=C(/C=C/c1ccc(F)cc1)NCc1cccs1,-21.9
7,COc1cc(CCc2ccc3c(c2)OCO3)oc(=O)c1,4.95
8,CC(C)(C)C(=O)Nc1cccc(-c2nc3ccccc3[nH]2)c1,-7.63
9,Cc1ccccc1CN1CCNC(=O)C1CC(=O)O (centres unmarked),3.55
10,CN(c1ccc(C(=O)Nc2ccccc2C(=O)N2CCCC2)cc1)S(C)(=O)=O,12.9
11,Clc1ccccc1N=C1SCCS1,8.83
12,CC1CN(C(=O)c2cnn3c(C(F)F)cc(-c4ccccc4)nc23)CC(C)O1 (centres unmarked),-17.3
13,O=c1c2ccccc2nc(/C=C/c2cc(Br)ccc2O)n1CCO,4.85
14,CC1CCN(S(=O)(=O)c2cnc(Cl)c(Br)c2)CC1,6.4
15,Cc1cc(C)nc(SCC(=O)n2c3c(c4ccccc42)CCCC3)n1,17
16,Cc1csc(N(C(=O)CCNC(=O)c2ccc([N+](=O)[O-])cc2)c2ccccc2)n1,-45.2
17,Br.COc1ccc(C(=O)CN(Cc2ccccc2)C2=NCCS2)cc1,-35.6
18,COC(=O)c1ccccc1CON1C(=O)C(C)(C)N(OCc2ccccc2C(=O)OC)C(=O)C1(C)C,-8.86
19,NC(=O)CC(NC(=O)Cc1ccc(Br)cc1)c1ccc(NCCc2ccccc2F)c([N+](=O)[O-])c1 (centres unmarked),-0.447
20,O=c1[nH]c2cc3c(cc2cc1CN(Cc1ccc2c(c1)OCO2)Cc1nnnn1CC1CCCO1)OCO3 (centres unmarked),3.61
